# Laboratory results from PubChem BioAssay AID463173 (ICCB-Longwood Screening Facility, Harvard Medical School, 2010).
# The whole screen tested about 52,000 compounds, of which about 4,300 (8.3%) were called active. Rule as the data show it: active = survival mostly below about 52% (no sharp cut-off); inactive = mostly above about 56%. Some of the results follow.
# Tested on: DeltatarO mutant
# Assay: S. aureus survival, RN4220 and DeltatarO strains – OD600, teichoic acid synthesis inhibitors, primary screen (AID 463173)
# Conditions: S. aureus RN4220 wild type/DeltatarO growth, OD600, 18 h, stronger effect = lower value, screened at 18.75 µg/mL (by protocol)
row,Structure (SMILES),survival
1,Cc1ccc(Cn2c(=O)n(-c3ccc(C)cc3)c(=O)c3c2c2cc(C)ccc2n3C)cc1,active: 52%
2,Cc1c(-c2ccc(Cl)cc2)c(=O)oc2c(CN3CCN(CCO)CC3)c(O)ccc12,inactive: 81%
3,CCOc1ccc(CCNC(=O)c2cc3c(=O)n(C)c4ccccc4c3n2C)cc1OCC,inactive: 87%
4,Cc1ccc(NC(=O)C(=O)NCC(c2ccc3c(c2)OCO3)N2CCN(C)CC2)c(C)c1 (centres undefined),inactive: 91%
5,Cc1ccc(NC(=O)C(Cc2ccccc2)NS(=O)(=O)c2ccc3c(c2)CCC(=O)N3)cc1 (centres undefined),inactive: 109%
6,CS(=O)(=O)c1cccc(-c2nnc(NC(=O)c3ccc4c(c3)OCCO4)o2)c1,inactive: 76%
7,CC(C)(C)c1ccc(Oc2nc3ccccn3c(=O)c2/C=C(\C#N)c2nc3ccccc3s2)cc1,inactive: 58%
8,CCc1ccc(NC(=O)CC2C(=O)N(c3ccc(C)cc3)C(=O)N2C2CCCC2)cc1 (centres undefined),inactive: 64%
9,Oc1ccc(-c2nnc(SCC3CCCCC3)o2)cc1,inactive: 89%
10,CN(C)c1oc(-c2ccc(COc3ccccc3)o2)nc1C#N,active: 39%
11,COc1ccc(N2CCN(S(=O)(=O)CCNC(=O)c3cc(=O)c4ccccc4o3)CC2)cc1,inactive: 99%
12,Cc1cc(C)cc(NC(=O)CSc2nc(=O)[nH]c3c2CCC3)c1,inactive: 112%
13,COc1cc(NC(=O)Cn2ccn(-c3cc(C)cc(C)c3)c(=O)c2=O)cc(OC)c1,inactive: 71%
14,CC(C)CN(CCNC(=O)c1cn(C)c2ccc(S(=O)(=O)N3CCCCCC3)cc2c1=O)CC(C)C,inactive: 89%
15,COc1ccc(N2CCN(C(=O)c3cccs3)CC2)cc1,inactive: 88%
16,O=C(CN1CCCN(Cc2ccc(F)cc2)S1(=O)=O)Nc1ccc2c(c1)OCCO2,inactive: 112%
17,CC(=O)c1nn(-c2ccc(OC(F)(F)F)cc2)nc1Nc1ccccc1,inactive: 88%
18,CCc1nn(CCCC(=O)NCc2ccc(C)cc2)c(=O)c2cc3occc3n12,inactive: 76%
19,CCCN(CCC)CCCNC(=O)Cn1ncc2c3ccccc3n(Cc3ccccc3F)c2c1=O,inactive: 129%
20,CCOc1ccccc1N(C)C(=O)Cn1nc(Cc2ccncc2)c2ccccc2c1=O,inactive: 92%
21,CCOC(=O)N1CCC(NC(=O)c2cnn(-c3ccc(C)cc3C)c2C2CCN(C(=O)OC(C)(C)C)CC2)CC1,inactive: 124%
22,CC(=O)Nc1cccc(Nc2nc3ccccc3n3c(C)nnc23)c1,inactive: 60%
23,CNS(=O)(=O)c1ccc2c(c1)n(C)c(=O)n2C,inactive: 93%

row,Structure (SMILES),survival
1,Cc1cccc(C(c2sc3nc(-c4ccco4)nn3c2O)N2CCN(c3ccccc3F)CC2)c1 (centres undefined),inactive: 67%
2,CCOC(=O)C1CCCN(S(=O)(=O)c2cc(Br)cc3c2N(C(C)=O)CC3)C1 (centres undefined),inactive: 72%
3,COC(=O)c1ccc(NS(=O)(=O)c2ccc3[nH]c4c(c3c2)CCCC4)cc1,active: 6%
4,O=C1C2C3C=CC(C3)C2C(=O)N1Cc1ccccc1 (centres undefined),inactive: 99%
5,CCC(=O)N1CCc2cc(S(=O)(=O)NCCC(=O)NCc3ccc(C)cc3)ccc21,inactive: 92%
6,COc1ccccc1C(=O)OCc1cc(=O)n2nc(-c3cccs3)sc2n1,inactive: 76%
7,CCCSc1ncc(Cl)c(C(=O)N(Cc2cccc(Cl)c2)C2CCS(=O)(=O)C2)n1 (centres undefined),inactive: 60%
8,CCOc1ccc(-c2cc(NC(=O)Nc3ccc(Cl)cc3)c(C(=O)OC)s2)cc1,inactive: 101%
9,CCOc1ccccc1NC(=S)N1CCC(NC(=O)c2ccco2)CC1,inactive: 98%
10,COc1ccc(OC)c(NC(=O)c2cnc(N3CCCCC3)c3ccccc23)c1,inactive: 81%
11,O=C(NCc1ccco1)C(c1ccccc1)N(C(=O)Cn1nnc2ccccc21)C1CCCC1 (centres undefined),inactive: 105%
12,CCOC(=O)c1c(NC(=O)CCCOc2ccc(C(C)(C)C)cc2)sc2c1CCCC2,active: 14%
13,Cc1ccc(-c2noc(-c3ccccc3NC(=O)C3CC(=O)N(c4ccc(C)cc4)C3)n2)cc1 (centres undefined),inactive: 48%
14,COc1cc(-c2nc(=S)[nH][nH]2)cc(OC)c1OC,inactive: 99%
15,COc1cc2nc(Nc3cccc(C)c3)nc(N)c2cc1OC,inactive: 67%
16,O=C(Oc1ccc(F)cc1)c1nc(SCc2ccc(F)cc2)ncc1Cl,inactive: 79%
17,CC1=C(C(=O)NCc2ccccc2C)C2(CCCCCC2)OC1=O,inactive: 78%
18,COC(=O)c1sc(-c2ccccc2)cc1NC(=O)Nc1ccc(Cl)cc1,active: 11%
19,CCCCN(Cc1cc2ccccc2[nH]c1=O)C(=O)c1cccc(Cl)c1,inactive: 81%
20,O=C1COc2ccc(-c3cc(-c4ccccc4)c4c(n3)-c3ccccc3OC4)cc2N1,inactive: 79%
21,Cc1nn(-c2ccccc2)c2sc(C(=O)Nc3ccc(Br)cc3)cc12,active: 26%
22,CCc1ccc(NC(=O)[C@H](CSCc2ccccc2)N2Cc3ccccc3C2=O)cc1,inactive: 76%
23,COc1ccc(-c2cc3c(=O)n(CC(=O)Nc4cc(F)ccc4F)ccn3n2)cc1OC,inactive: 84%

row,Structure (SMILES),survival
1,O=C(NCCc1ccc(Cl)cc1)c1ccc2c(c1)N(Cc1ccc(F)cc1)C(=O)CS2,active: 37%
2,CN(C)c1ccc(-c2nc(-c3cccs3)c(-c3cccs3)[nH]2)cc1,active: 47%
3,COc1cccc(CNC(=O)CCCn2ncn3c(cc4occc43)c2=O)c1,inactive: 84%
4,Cc1ccc(OC(=O)CSc2nnc(-c3cccs3)o2)cc1,inactive: 72%
5,CCn1c(=O)c2sccc2n2c(CCC(=O)N3CCN(c4ccc(C(C)=O)cc4)CC3)nnc12,inactive: 65%
6,Cc1ccccc1C(=O)N(Cc1nc(-c2ccc(Cl)cc2)no1)C(C)C,inactive: 78%
7,CNC(=O)c1c(NC(=O)/C=C/c2ccccc2Cl)sc2c1CCC2,inactive: 89%
8,O=C(Cn1c(-c2cccs2)cc2cc(Cl)ccc21)N1CCN(c2ccccc2F)CC1,inactive: 75%
9,CC(NC(=O)CN(c1ccc(Cl)cc1Cl)S(=O)(=O)c1ccccc1)c1ccccc1 (centres undefined),active: 37%
10,CCC(=O)Nc1ccc(CC)cc1-c1nc2ccccc2n(Cc2ccccc2)c1=O,inactive: 66%
11,COc1ccc(C(=O)c2oc3ccccc3c2NC(=O)COc2cccc(C)c2C)cc1,inactive: 76%
12,COc1cc(-c2noc(CCC(=O)Nc3cc(C)ccc3C)n2)cc(OC)c1OC,inactive: 81%
13,COc1ccc(NC(=O)C(Cc2ccccc2)n2cccc2)cc1OC (centres undefined),inactive: 79%
14,CCCCS(=O)(=O)/C=C\C1C2C=CC(C2)C1S(=O)(=O)CCCC (centres undefined),inactive: 75%
15,Cc1ccccc1Cn1c2ccccc2c2cnn(CC(=O)NCCc3ccccc3)c(=O)c21,inactive: 96%
16,CCOC(=O)CSc1nnc(CNc2cccc(C(F)(F)F)c2)n1CC,inactive: 71%
17,COc1ccc(NC(=O)CCS(=O)(=O)c2ccc3nc(C)sc3c2)cc1Cl,inactive: 44%
18,Cc1ccc(-n2ncc(C(=O)NCCc3c[nH]c4ccccc34)c2C2CCN(C(=O)OC(C)(C)C)CC2)cc1C,inactive: 110%
19,O=C(CN1CCCN(Cc2ccccc2Cl)S1(=O)=O)NCc1ccccc1,inactive: 94%
20,N#C/C=C1\n2c(nc3ccccc32)OC12CCCCC2,inactive: 106%
21,Cc1cccn2c(=O)cc(COc3cccc(NC(=O)COc4ccc(F)cc4)c3)nc12,inactive: 108%
22,CCc1nnc(NC(=O)C(=O)c2cc(C)n(-c3ccccc3)c2C)s1,inactive: 77%
23,O=C(N1CCOCC1)N1CCOCC1,inactive: 67%

row,Structure (SMILES),survival
1,CC(C)N(Cc1ccccc1)C(=O)Cn1ncc2c([nH]c3ccccc32)c1=O,inactive: 105%
2,Cc1ccc2[nH]c(=O)c(CN(CC3CCCO3)C(=S)NCCCN3CCOCC3)cc2c1 (centres undefined),inactive: 114%
3,CC1CCC(NC(=O)c2cc3c(Cl)nc4ccccc4c3s2)CC1 (centres undefined),inactive: 87%
4,O=C(Cn1ccc2cc(S(=O)(=O)N3CCCCC3)ccc21)NCc1cccc(Cl)c1,inactive: 117%
5,CCOc1ccccc1NC(=O)Cn1c(=O)n(Cc2ccccc2)c(=O)c2cccnc21,inactive: 109%
6,CC(=O)Nc1ccccc1-c1nc2ccccc2n(Cc2cccc(Br)c2)c1=O,inactive: 84%
7,COc1ccc(F)cc1S(=O)(=O)Nc1cccc(-c2ccc(N3CCCCCC3)nn2)c1,inactive: 88%
8,Cc1cc(S(=O)(=O)NCC(c2ccco2)S(=O)(=O)c2ccccc2)ccc1F (centres undefined),inactive: 95%
9,CCOC(=O)C(C)NC(=O)C1CCN(c2ncnc3c2nc2n3CCCCC2)CC1 (centres undefined),inactive: 83%
10,CCc1nn(C(CC)C(=O)NCc2ccc(F)cc2)c(=O)c2cc3occc3n12 (centres undefined),inactive: 76%
11,COc1cc(C(=O)NCC(c2ccco2)S(=O)(=O)c2ccccc2)cc(OC)c1OC (centres undefined),inactive: 60%
12,O=C(CCc1ccccc1)N(Cc1cccnc1)c1nc2c(F)cccc2s1,inactive: 61%
13,CCCOc1ccc(C(=O)N(Cc2ccc(N(C)C)cc2)CC2CCCO2)cc1 (centres undefined),inactive: 64%
14,O=C(c1cc2c(s1)-c1ccccc1OC2)N1CCN(c2ccccc2)CC1,inactive: 57%
15,CC1=C(C(=O)Nc2ccccc2)C(CC(C)C)n2nc(SCc3ccccc3C)nc2N1 (centres undefined),inactive: 91%
16,O=C(c1ccccc1/S(=N/S(=O)(=O)c1ccccc1)N1CCOCC1)N1CCOCC1 (centres undefined),inactive: 75%
17,CCC1CCCCN1CC(=O)Nc1cc(C)c2c(=O)oc3ccccc3c2n1 (centres undefined),inactive: 98%
18,O=C(CSc1nc2c([nH]c3ccccc32)c(=O)n1-c1ccc(Cl)cc1)N1CCOCC1,inactive: 94%
19,Cc1cc(C)cc(NC(=O)C2CCCN(C(=O)c3cnn(-c4ccccc4)c3-n3cccc3)C2)c1 (centres undefined),inactive: 68%
20,Cc1ccc(NC(=O)N2CCC(c3ccccc3)C2)cc1C (centres undefined),inactive: 80%
